These results are taken from the supplement of paper PMC3334620.

Over roughly 33,000 sequences, “E-score (-0.5 to 0.5)” has its median near -0.021; the highest 2% begin near 0.32. Some of the results follow.

In the test the target is T1, Zap1 (UniProt P47043).
T1 sequence: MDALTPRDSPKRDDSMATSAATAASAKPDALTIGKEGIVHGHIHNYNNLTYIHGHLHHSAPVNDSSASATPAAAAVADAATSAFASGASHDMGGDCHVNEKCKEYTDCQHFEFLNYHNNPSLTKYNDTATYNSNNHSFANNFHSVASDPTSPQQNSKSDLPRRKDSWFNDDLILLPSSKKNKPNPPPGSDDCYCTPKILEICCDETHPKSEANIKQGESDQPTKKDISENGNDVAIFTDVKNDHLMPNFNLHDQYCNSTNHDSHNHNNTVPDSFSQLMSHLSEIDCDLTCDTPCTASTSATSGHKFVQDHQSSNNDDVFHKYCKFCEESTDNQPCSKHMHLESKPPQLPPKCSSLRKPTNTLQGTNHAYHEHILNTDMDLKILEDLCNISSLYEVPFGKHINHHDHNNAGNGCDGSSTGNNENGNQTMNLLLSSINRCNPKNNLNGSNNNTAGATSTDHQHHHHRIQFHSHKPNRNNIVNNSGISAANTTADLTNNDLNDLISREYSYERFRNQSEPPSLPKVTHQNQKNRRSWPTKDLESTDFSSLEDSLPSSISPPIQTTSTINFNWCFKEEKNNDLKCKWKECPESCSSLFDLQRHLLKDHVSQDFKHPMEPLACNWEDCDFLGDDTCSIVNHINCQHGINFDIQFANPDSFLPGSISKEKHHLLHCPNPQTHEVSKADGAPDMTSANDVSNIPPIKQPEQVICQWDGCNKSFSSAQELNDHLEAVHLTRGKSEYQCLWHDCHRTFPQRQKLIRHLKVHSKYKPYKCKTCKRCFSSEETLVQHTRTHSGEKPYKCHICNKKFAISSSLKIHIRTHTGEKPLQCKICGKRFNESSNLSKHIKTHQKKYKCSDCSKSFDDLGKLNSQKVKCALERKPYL
The experiment in a line: PBM E-score (8-mer binding enrichment) (E-score (-0.5 to 0.5)); higher = stronger / more preferred TF binding; most listed sequences are background and not binding sites. The settings on record: protein concentration: 200 nM; construct: GST-full length. In outline: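 GST-tagged yeast TFs (full-length or DNA-binding domain) were made by PURExpress in vitro transcription/translation and applied at about 100-200 nM to universal all-10-mer Agilent arrays. The arrays were made double-stranded by primer extension, on fresh or once-stripped slides. Bound protein was detected with fluorescent anti-GST, and scans were normalised with masliner. Each ungapped eight-base word, pooled with its reverse complement, received an E-score (modified Wilcoxon-Mann-Whitney statistic) from the Universal PBM Analysis Suite.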
Consider AGGAGAAT, for which the “PBM E-score” value was 0.0756. On to ACGAACGA, for which the “PBM E-score” value is -0.0891. Regarding AGAATATC, the “PBM E-score” value is -0.132.

As to AAGGTCTC, the “PBM E-score” value was 0.162.

As for GCAACGAA, the “PBM E-score” value came out at 0.0701. ATCTAAAC: the “PBM E-score” value is -0.119. Regarding AACCCCTG, the “PBM E-score” value came out at 0.347. On to TTCGCAAA, for which the “PBM E-score” value came to 0.196. As for ATGACGTC, the “PBM E-score” value is -0.139. With AATTGATG, the “PBM E-score” value came out at 0.26. For AACAGGTT, the “PBM E-score” value was determined as 0.147. For AGTTCATG, the “PBM E-score” value was 0.0692. As for CAATCAGC, the “PBM E-score” value was -0.0527. The figure for CATGCGCC is -0.176; for AATTGCAA it is 0.0788. Turning to CCCAGCGC, the “PBM E-score” value was -0.235. Regarding AAGTAATT, the “PBM E-score” value came out at 0.0548.

In the case of AGGCCGTG, the “PBM E-score” value is 0.134. As for ATTATTTC, the “PBM E-score” value turned out to be 0.198.

For CCTCCCAG, the “PBM E-score” value is -0.291. On to CACAACGC, for which the “PBM E-score” value is -0.139.

Take AGTAGCTA: the “PBM E-score” value worked out at 0.0791. In the case of CTATCCAG, the “PBM E-score” value is -0.0302.

Consider GAATGCGA, for which the “PBM E-score” value is -0.152. As for AGCATACA, the “PBM E-score” value was -0.0109. Take GTTTCGGA: the “PBM E-score” value came out at 0.182.

Consider GGTAGCAC, for which the “PBM E-score” value was -0.00484.

For CGGTGGAG, the “PBM E-score” value was -0.243. Then CTCAAGCC, with -0.13.

Take CGGCCGAA: the “PBM E-score” value is -0.0534.

With GAGAGAGC, the “PBM E-score” value is -0.261.

Regarding AGCCTTAT, the “PBM E-score” value was -0.0493. Take GACGGACA: the “PBM E-score” value was -0.162. The figure for GGGATCAA is 0.145.

Take TACTGTAA: the “PBM E-score” value was found to be 0.254. Take CGCCATGA: the “PBM E-score” value was -0.00203.

For ATTGTCTC, the “PBM E-score” value is -0.243.

With TGAAACCA, the “PBM E-score” value stood at 0.209. Consider CTATAGTA, for which the “PBM E-score” value stood at 0.115. Then AGTAGGCG, with -0.187; and CAACTCGA, with -0.0502; and ACGACTGA, with -0.0338. Then ATTTCAAA, with 0.162; and CACGCGCA, with -0.0768; and AATAGCTG, with -0.109.

Take CCTCCGCC: the “PBM E-score” value was -0.0775. Regarding GGTGGGAA, the “PBM E-score” value is 0.0321.

Turning to ATCCTTGA, the “PBM E-score” value is 0.196. Regarding CGAGATGC, the “PBM E-score” value is -0.243. Regarding GGGACCCA, the “PBM E-score” value worked out at 0.198. Then ACCCTCAA, with 0.361. Then ATATCAGG, with -0.091; and AATTTCCG, with 0.115; and TAGAAAGA, with -0.177. Then GACGCAGC, with -0.185; and AATAGGAG, with -0.212; and ACTAGGAG, with -0.203. For the sequence AGAAGCGC, the “PBM E-score” value is -0.0974. On to AATTGAAG, for which the “PBM E-score” value was -0.0701. The figure for ACTCTTAC is 0.226.

Take AAGTGTAG: the “PBM E-score” value is -0.0478.

As to CGGTCCGA, the “PBM E-score” value was -0.127. Turning to ACAAGCAC, the “PBM E-score” value is -0.209. Take GTGTACGA: the “PBM E-score” value is -0.111. Then AAAAAGTG, with 0.151; and CCGGTCGC, with -0.093. Take CCTGAAAA: the “PBM E-score” value is -0.0503. Regarding ATAGTGAT, the “PBM E-score” value was -0.0291. As for GCCCAGAC, the “PBM E-score” value is -0.309.

For AATAAGTA, the “PBM E-score” value was 0.0977.

Consider AGTCTTGC, for which the “PBM E-score” value is -0.245. Regarding ATCTTTCA, the “PBM E-score” value is 0.185.

AGTCCAAC: the “PBM E-score” value was -0.159. Regarding GGGGTTCA, the “PBM E-score” value is 0.0745. Turning to GCGCCCTA, the “PBM E-score” value was -0.151. AGATTTGA: the “PBM E-score” value is -0.0456. In the case of AAGCCCTT, the “PBM E-score” value is -0.053. Regarding CATACCCA, the “PBM E-score” value turned out to be 0.221. AGGGGACG: the “PBM E-score” value was -0.0872. CTGGTTCA: the “PBM E-score” value is -0.118. For CGACACTA, the “PBM E-score” value worked out at 0.185. AGAACAAC: the “PBM E-score” value was -0.0202. Take CATTTATA: the “PBM E-score” value turned out to be 0.196. As to GCCGTGGA, the “PBM E-score” value was -0.193.

For the sequence ATAACAGA, the “PBM E-score” value was 0.0914. AACAAAAC: the “PBM E-score” value turned out to be 0.136.
